{"source": "PubChem BioAssay AID504339", "about": "(National Center for Advancing Translational Sciences (NCATS), 2011)", "note": "Among all 390,000 compounds or so, about 17,000 (4.4%) were called active. The shares of active, inactive and inconclusive entries below differ from those in the screen. The call rests on the fitted dose curve; in most records, active means well fitted inhibition curve with a large enough effect; inconclusive means small, poorly fitted or top-dose-only effect; inactive means no such curve, though single readings can be large or run the other way. A potency beside an inconclusive call is a rough fit, not a confirmed value. On the % scale 0 is the no-effect control and ±100 the full control effect; potency means the concentration at half of the fitted maximal effect; tags describe the fitted curve by direction and shape.", "data": [{"target": "Lysine-specific demethylase 4A (Homo sapiens) (UniProt O75164)", "sequence (O75164 whole entry, looked up, the tested form may be a part)": "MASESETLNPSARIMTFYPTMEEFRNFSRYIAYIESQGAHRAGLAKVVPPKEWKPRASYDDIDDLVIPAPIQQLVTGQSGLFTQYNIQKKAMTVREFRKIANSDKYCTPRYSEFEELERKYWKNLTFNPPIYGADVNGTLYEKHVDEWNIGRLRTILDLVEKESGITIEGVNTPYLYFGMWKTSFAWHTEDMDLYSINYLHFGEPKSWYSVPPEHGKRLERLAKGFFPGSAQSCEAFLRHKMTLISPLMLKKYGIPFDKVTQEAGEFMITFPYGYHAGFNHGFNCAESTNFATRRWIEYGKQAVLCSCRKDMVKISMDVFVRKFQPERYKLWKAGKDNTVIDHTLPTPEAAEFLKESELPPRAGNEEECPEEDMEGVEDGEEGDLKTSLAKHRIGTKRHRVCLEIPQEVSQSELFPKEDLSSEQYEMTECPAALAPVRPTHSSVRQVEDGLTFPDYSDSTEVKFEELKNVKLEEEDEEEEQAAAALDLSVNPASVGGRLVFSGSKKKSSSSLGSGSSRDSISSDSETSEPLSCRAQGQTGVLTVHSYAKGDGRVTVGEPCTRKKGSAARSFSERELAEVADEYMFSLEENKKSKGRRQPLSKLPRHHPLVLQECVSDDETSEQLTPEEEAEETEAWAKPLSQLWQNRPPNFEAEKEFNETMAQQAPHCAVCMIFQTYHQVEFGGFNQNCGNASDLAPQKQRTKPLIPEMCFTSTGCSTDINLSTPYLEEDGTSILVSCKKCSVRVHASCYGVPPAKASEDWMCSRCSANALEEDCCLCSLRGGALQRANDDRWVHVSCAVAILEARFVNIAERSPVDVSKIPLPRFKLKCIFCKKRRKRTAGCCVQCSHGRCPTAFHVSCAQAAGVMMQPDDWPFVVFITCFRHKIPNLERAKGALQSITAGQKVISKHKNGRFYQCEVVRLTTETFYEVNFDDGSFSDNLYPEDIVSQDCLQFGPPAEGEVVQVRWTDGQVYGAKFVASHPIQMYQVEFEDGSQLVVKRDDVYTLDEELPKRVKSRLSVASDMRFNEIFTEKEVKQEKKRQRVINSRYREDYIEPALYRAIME", "test": "qHTS Assay for Inhibitors of JMJD2A-Tudor Domain; further: nearly all actives have a fitted effect of over 50% in size", "details": "AlphaScreen JMJD2A-Tudor / H3K4me3 peptide binding; activity change, negative = inhibition: at 114 µM (top of the series)", "values": [{"smiles": "Cc1ccc(NC(=O)COc2cccnc2[N+](=O)[O-])cc1S(=O)(=O)N1CCCCC1", "Potency": "inconclusive: 70.8 µM [inhibitor, single point]"}, {"smiles": "COc1ccc(-n2nc(C(=O)N3CCCCC3)c3c4ccccc4n(C)c3c2=O)cc1Cl", "activity change, negative = inhibition": "inactive: -9.33%"}, {"smiles": "FC(F)(F)c1ccccc1NC(=S)N1CCc2ccccc2C1", "activity change, negative = inhibition": "inactive: -11.5%"}, {"smiles": "CCn1nc(CC(=O)Nc2nnc(CC(=O)N3CCCCC3)s2)c2ccccc2c1=O", "activity change, negative = inhibition": "inactive: 2.74%"}, {"smiles": "Cc1[nH]c(C(=O)N/N=C/c2ccc(N(C)C)cc2)c(C)c1C(=O)N/N=C/c1ccc(N(C)C)cc1", "Potency": "inconclusive: 8.91 µM [inhibitor, partial curve, poor fit]"}, {"smiles": "S=c1[nH]nc2c3c4c(sc3ncn12)CCCC4", "Potency": "active: 22.4 µM"}, {"smiles": "C=CCn1c(CNS(=O)(=O)c2ccc(Cl)cc2)n[nH]c1=S", "Potency": "active: 28.2 µM"}, {"smiles": "COc1cc(N2CCC(O)CC2)ccc1Nc1nnc(Cl)c(Nc2ccccc2S(C)(=O)=O)n1", "Potency": "inconclusive: 89.1 µM [inhibitor, partial curve]"}, {"smiles": "CCOC(=O)c1c(C)c(-c2ccccc2)n(CC(=O)NCc2ccccc2)c1C", "activity change, negative = inhibition": "inactive: -10.9%"}, {"smiles": "Cc1cccc(-n2nc3c(c2NC(=O)c2ccco2)CSC3)c1C", "Potency": "active: 50.1 µM"}, {"smiles": "O=C(c1ccccc1)c1ccc(OCCCN2CCCC2)cc1", "Potency": "active: 10 µM"}, {"smiles": "CCOC(=O)N1CCc2c(sc(NCc3cccs3)c2C(=O)Nc2cc(Cl)ccc2OC)C1", "Potency": "inconclusive: 12.6 µM [inhibitor, partial curve, poor fit]"}, {"smiles": "Cc1[nH]c(=S)sc1Cc1ccc(F)cc1", "Potency": "active: 39.8 µM"}, {"smiles": "COc1ccc(CCNC(=O)CNCCc2ccc(F)cc2)cc1", "Potency": "active: 22.4 µM"}, {"smiles": "CCCn1c(C(=O)OC)cc2c1ccn2-c1ccc(F)cc1", "Potency": "inconclusive: 56.2 µM [inhibitor, partial curve]"}, {"smiles": "COC(=O)C1=C(C(=O)OC)C2C(C)=CC(C)=CN2C(C(=O)OC)=C1C(=O)OC", "note": "(stereo not given)", "Potency": "inconclusive: 89.1 µM [inhibitor, single point]"}, {"smiles": "O=C(Nc1ccc(Cl)cc1Cl)N1CCN(c2ncccn2)CC1", "activity change, negative = inhibition": "inactive: 9.52%"}, {"smiles": "Clc1ccc(-c2ccc(-c3nn4c(-c5ccco5)nnc4s3)o2)cc1", "Potency": "inconclusive: 44.7 µM [inhibitor, partial curve]"}, {"smiles": "CC(Nc1ccc(Cl)cc1)C(=O)NN", "note": "(stereo not given)", "activity change, negative = inhibition": "inactive: 0%"}, {"smiles": "COc1cccc(C(=O)Nc2ccc(N(C)C)cc2)c1OC", "Potency": "active: 56.2 µM"}, {"smiles": "Cc1cc2c(n1-c1ccc(Br)cc1)CC(C)(C)CC2=O", "Potency": "inconclusive: 50.1 µM [inhibitor, partial curve]"}, {"smiles": "CCOC(=O)Cn1nnnc1C(C(C)C)N(Cc1cccs1)Cc1cc2cc(C)ccc2[nH]c1=O", "note": "(stereo not given)", "Potency": "inconclusive: 20 µM [inhibitor, partial curve, poor fit]"}, {"smiles": "Clc1ccccc1-c1nnc2sc(CCc3ccccc3)nn12", "Potency": "inconclusive: 79.4 µM [inhibitor, partial curve]"}, {"smiles": "COc1cccc(NC(=O)CN2C(=O)CC(c3ccco3)Sc3ccccc32)c1", "note": "(stereo not given)", "Potency": "inconclusive: 70.8 µM [inhibitor, partial curve]"}, {"smiles": "O=C(COc1ccccc1Cl)NC(=S)Nc1ccccc1N1CCCC1", "Potency": "inconclusive: 20 µM [inhibitor, full curve]"}, {"smiles": "O=C1C2C3C=CC(C4CC34)C2C(=O)N1/N=C/c1ccc(-c2ccc(Cl)cc2[N+](=O)[O-])o1", "note": "(stereo not given)", "Potency": "inconclusive: 12.6 µM [inhibitor, full curve, poor fit]"}, {"smiles": "COc1ccc(-c2csc(NC(=S)NC(=O)/C=C/c3ccco3)n2)cc1OC", "activity change, negative = inhibition": "inactive: -34.9%"}, {"smiles": "CCCC(=O)Nc1ccc2c(c1)nc1n2CCN(CCOC)C1", "activity change, negative = inhibition": "inactive: -9.83%"}, {"smiles": "COc1ccc(C(=O)NC(=S)Nc2ccc(CN3CCOCC3)cc2)cc1OC", "Potency": "inconclusive: 89.1 µM [inhibitor, partial curve]"}, {"smiles": "O=S(=O)(Nc1ccc(Cl)cc1)c1ccc(N2CCOCC2)c(NC(=S)NCCN2CCOCC2)c1", "Potency": "active: 79.4 µM"}, {"smiles": "COc1ccc(C(=O)NCc2ccc3c(c2)cc(C)n3C)cc1", "Potency": "inconclusive: 39.8 µM [inhibitor, full curve, poor fit]"}, {"smiles": "COc1ccccc1NC(C)C(=O)N/N=C/c1ccccc1OCc1cccc(Br)c1", "note": "(stereo not given)", "Potency": "inconclusive: 7.08 µM [inhibitor, full curve, poor fit]"}, {"smiles": "CC(C)N(C(=O)[C@H]1CC(CC(=O)NCc2cccc(C(F)(F)F)c2)C(=O)N2CCc3c([nH]c4ccccc34)[C@]12C)C(C)C", "note": "(stereo not given in full)", "Potency": "inconclusive: 44.7 µM [inhibitor, partial curve]"}, {"smiles": "O=C(CN(Cc1cccs1)C(=O)CCC(=O)Nc1ccccn1)NCc1ccccc1", "Potency": "inconclusive: 56.2 µM [inhibitor, partial curve, poor fit]"}, {"smiles": "c1ccc(CCSc2nccn2-c2ccccc2)cc1", "Potency": "inconclusive: 63.1 µM [inhibitor, partial curve, poor fit]"}, {"smiles": "Cc1ccc2[nH]c3c(NCc4ccccc4)ncnc3c2c1", "Potency": "inconclusive: 50.1 µM [inhibitor, partial curve]"}, {"smiles": "O=C(O)CSCc1nc2cccnc2n1C1CCCCC1", "Potency": "inconclusive: 44.7 µM [inhibitor, partial curve, poor fit]"}, {"smiles": "Cc1ccc(N2CCN(C(=O)c3cn(C)c4ccc(S(=O)(=O)N5CCCC5)cc4c3=O)CC2C)cc1", "note": "(stereo not given)", "Potency": "inconclusive: 2.51 µM [inhibitor, full curve, poor fit]"}, {"smiles": "CCN(CC)C(=O)CN1C(=O)COc2ccc(S(=O)(=O)N3CCOCC3)cc21", "activity change, negative = inhibition": "inactive: 6.06%"}, {"smiles": "CC(C)OCCCn1c(-c2ccc(Br)cc2)c[nH]c1=S", "Potency": "inconclusive: 22.4 µM [inhibitor, full curve, poor fit]"}, {"smiles": "CO/N=C/c1ccc(Sc2ccccc2)c([N+](=O)[O-])c1", "Potency": "inconclusive: 56.2 µM [inhibitor, partial curve]"}, {"smiles": "COc1ccc(/C=N/Nc2cc(C)nc3ccc(OC)cc23)c(OC)c1", "Potency": "inconclusive: 39.8 µM [inhibitor, partial curve]"}, {"smiles": "Cc1ccc(Sc2ncccc2[N+](=O)[O-])cc1", "Potency": "active: 44.7 µM"}, {"smiles": "COc1ccc(-n2nc3c(N4CCC(C(=O)NCCc5ccco5)CC4)nnc(C)c3c2C)cc1", "Potency": "active: 50.1 µM"}, {"smiles": "O=C(CSc1n[nH]c(-c2cccnc2)n1)OC1CCCCC1", "Potency": "active: 22.4 µM"}, {"smiles": "CN1C(=O)C2C(c3ccc(N(C)C)cc3)NN(Cc3ccccc3)C2C1=O", "note": "(stereo not given)", "Potency": "inconclusive: 28.2 µM [inhibitor, partial curve]"}, {"smiles": "CS(=O)(=O)N1CCN(c2ccc(C(=O)NC34CC5CC(CC(C5)C3)C4)cc2[N+](=O)[O-])CC1", "Potency": "inconclusive: 28.2 µM [inhibitor, single point]"}, {"smiles": "Cc1occc1-c1nnc(SCC(=O)NCc2ccco2)n1CC(C)C", "Potency": "inconclusive: 79.4 µM [inhibitor, single point]"}, {"smiles": "CC(=O)N1CCN(C(=S)c2ccc(-c3ccc(Cl)cc3)o2)CC1", "Potency": "inconclusive: 63.1 µM [inhibitor, partial curve, poor fit]"}, {"smiles": "C/C(=N\\Nc1nc2ccccc2s1)c1ccc2c(c1)OCO2", "Potency": "inconclusive: 56.2 µM [inhibitor, partial curve]"}, {"smiles": "CCCn1c(SC2C(=O)CC(C)(C)CC2=O)nc2c1c(=O)n(C)c(=O)n2C", "activity change, negative = inhibition": "inactive: -4.65%"}, {"smiles": "CCN(CC)CC(O)Cn1c(C)c(-c2ccccc2)c2cc([N+](=O)[O-])ccc21", "note": "(stereo not given)", "Potency": "inconclusive: 56.2 µM [inhibitor, partial curve]"}, {"smiles": "O=S(=O)(/C(=C/c1ccc(C(F)(F)F)cc1)c1nc2ccccc2[nH]1)c1ccccc1", "Potency": "active: 79.4 µM"}, {"smiles": "O=C(CSc1nnc(-c2ccco2)n1Cc1ccccc1)OC1CCCCC1", "activity change, negative = inhibition": "inactive: -22.8% [at 57.1 µM]"}, {"smiles": "C1=C(c2ccccc2)Nc2nnnn2C1", "Potency": "inconclusive: 89.1 µM [inhibitor, single point]"}, {"smiles": "Cn1cnc2cc(NCc3ccc(Cl)cc3)ccc21", "Potency": "inconclusive: 50.1 µM [inhibitor, partial curve]"}, {"smiles": "COc1cc(-c2nc3sccn3c2Nc2cccc(C)c2)ccc1O", "Potency": "active: 44.7 µM"}, {"smiles": "O=C(NC(=S)N1CCCc2ccccc21)c1ccccc1", "Potency": "inconclusive: 56.2 µM [inhibitor, partial curve]"}, {"smiles": "Cc1ccc(NS(=O)(=O)c2cc3c(cc2Cl)CCC(=O)N3)cc1Cl", "activity change, negative = inhibition": "inactive: 4.96%"}, {"smiles": "COc1ccccc1CNC(=O)C(=O)Nc1ccc(C(=O)N2CCC(C)CC2)cc1", "activity change, negative = inhibition": "inactive: -8.97%"}, {"smiles": "Cc1ccc(C)c(N2CCN(C(=O)CCCn3ncn4c(cc5occc54)c3=O)CC2)c1", "Potency": "inconclusive: 63.1 µM [inhibitor, partial curve, poor fit]"}, {"smiles": "Cc1cc(C)c(N=C2C(=O)Nc3ccccc32)c(C)c1", "Potency": "inconclusive: 3.55 µM [inhibitor, full curve, poor fit]"}, {"smiles": "Cc1cc(C)cc(NC(=S)N2CCN(S(=O)(=O)c3ccccc3)CC2)c1", "Potency": "inconclusive: 89.1 µM [inhibitor, single point]"}, {"smiles": "CN(C)c1ccc(CNC(=O)CCCN2C(=O)CCn3nc(-c4cccn4C)cc32)cc1", "Potency": "inconclusive: 44.7 µM [inhibitor, partial curve]"}, {"smiles": "O=C(CCCCCNC(=O)N1CCn2c1nc1ccccc12)NCc1ccc(F)cc1", "activity change, negative = inhibition": "inactive: -6.87%"}, {"smiles": "CC(=O)c1ccc(NC(=O)CC(NCCC2=CCCCC2)C(=O)O)cc1", "note": "(stereo not given)", "Potency": "active: 12.6 µM"}, {"smiles": "O=C(c1ccco1)N(Cc1nc2ccccc2c(=O)[nH]1)C1CCCC1", "activity change, negative = inhibition": "inactive: -5.22%"}, {"smiles": "CCOc1ccc(CC2S/C(=N/c3ccccn3)NC2=O)cc1", "note": "(stereo not given)", "Potency": "inconclusive: 89.1 µM [inhibitor, partial curve]"}, {"smiles": "CCC(C(=O)NCC1CCCO1)N(C(=O)c1snc(C(N)=O)c1N)c1ccc(Cl)cc1", "note": "(stereo not given)", "activity change, negative = inhibition": "inactive: -3.01%"}, {"smiles": "Cc1ccc2c(c1)C(c1ccccc1)N(C(=O)c1ccc(OC(C)C)cc1)CC(=O)N2", "note": "(stereo not given)", "Potency": "inconclusive: 56.2 µM [inhibitor, partial curve]"}]}]}
